The values that follow come from the supplement of paper PMC9446081.

Hit rate of the full screen: of about 39,000 compounds, about 220 (0.56%) showed activity. Some of the results follow.
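Note: static incubation at 37 °C against the wild-type strain, values averaged over two biological replicates.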

The test system of this assay is Escherichia coli K-12 BW25113. As to the kind of experiment: relative growth (OD600 normalised to plate interquartile mean) (fraction); higher = less growth inhibition, active = 0.2 or less. Conditions: 50 µM; LB; incubation time: overnight (16-24 h).
For the compound `C[C@H]1CN([C@@H](C)CO)C(=O)c2cc(NS(=O)(=O)c3ccccc3)ccc2O[C@@H]1CN(C)S(=O)(=O)c1ccccc1`, the relative growth is inactive: 1.02.
For the compound `C[C@H](CO)N1C[C@H](C)[C@H](CN(C)C(=O)CCCN(C)C)OCCCC[C@H](C)Oc2ccc(NS(=O)(=O)c3cn(C)cn3)cc2C1=O`, the relative growth is inactive: 0.988.
Turning to `CN1C[C@H](C(N)=O)CC1=O`, the relative growth was inactive: 0.99.
For the compound `C[C@@H]1CN([C@@H](C)CO)C(=O)c2cc(NC(=O)Nc3ccccc3)ccc2O[C@@H](C)CCCCO[C@@H]1CN(C)C(=O)c1ccccc1`, the relative growth was inactive: 0.979.
Under `C[C@H](CO)N1C[C@H](C)[C@@H](CN(C)C(=O)CCC(F)(F)F)OCCCC[C@H](C)Oc2ccc(NC(=O)c3ccccc3)cc2C1=O` stands inactive: 1.02.
With `C[C@@H]1CN([C@@H](C)CO)S(=O)(=O)c2ccc(C#CC3(O)CCCC3)cc2O[C@@H]1CN(C)C(=O)Nc1cccc(F)c1` the figure was inactive: 1.04.
With `COc1ccc2c3c(n(c2c1)C)[C@@H](CO)N(Cc1ccccc1Cl)C[C@]13CCN(CC1)C(=O)CC1CC1` the figure was inactive: 1.02.
With `NC(=O)c1nc2c(s1)CCNCC2`, the relative growth was inactive: 1.02.
Turning to `C[C@@H]1CN([C@@H](C)CO)C(=O)c2cc(NC(=O)c3ccncc3)ccc2O[C@@H]1CN(C)Cc1ccc(Oc2ccccc2)cc1`, the relative growth was inactive: 1.01.
In the case of `C[C@@H]1CCCCO[C@@H](CN(C)C(=O)Nc2ccc3c(c2)OCO3)[C@@H](C)CN([C@H](C)CO)C(=O)c2cc(NS(=O)(=O)c3ccc(Cl)cc3)ccc2O1`, the relative growth was inactive: 1.04.
`N=C(N)N`: the relative growth was inactive: 1.01.
With `O=C(O)c1cccc(C(=O)O)n1` the figure was inactive: 0.891.
Turning to `COc1ccc(CN(C)C[C@@H]2Oc3c(NC(=O)Nc4ccc(C(F)(F)F)cc4)cccc3C(=O)N([C@H](C)CO)C[C@H]2C)cc1`, the relative growth is inactive: 0.873.
Regarding `C[C@@H]1CCCCO[C@@H](CN(C)S(=O)(=O)c2ccc(F)cc2)[C@@H](C)CN([C@@H](C)CO)C(=O)c2cc(NC(=O)Nc3ccc(F)cc3)ccc2O1`, the relative growth was inactive: 1.05.
Under `C[C@H]1CCCCO[C@@H](CN(C)C(=O)Nc2ccc(F)cc2)[C@@H](C)CN([C@@H](C)CO)C(=O)c2cc(NS(=O)(=O)c3ccc(F)cc3)ccc2O1` stands inactive: 1.
In the case of `Cc1noc(C)c1S(=O)(=O)Nc1ccc2c(c1)C(=O)N([C@@H](C)CO)C[C@@H](C)[C@H](CN(C)C(=O)Nc1ccccc1)OCCCC[C@@H](C)O2`, the relative growth was inactive: 1.
In the case of `CO[C@@H]1CN(C)C(=O)c2cc(NS(=O)(=O)c3ccccc3)ccc2OC[C@@H](C)N(C(=O)NC(C)C)C[C@H]1C`, the relative growth is inactive: 1.01.
As to `Cc1cnc(N2C[C@H]3COC[C@@H]3C2)nc1`, the relative growth was inactive: 0.977.
`Cl.O=C(c1ccc(OCCN2CCCCC2)cc1)c1c(-c2ccc(O)cc2)sc2cc(O)ccc12`: the relative growth was inactive: 1.09.
Under `Cc1ccc(S(=O)(=O)Nc2ccc3c(c2)C(=O)N([C@H](C)CO)C[C@H](C)[C@H](CN(C)Cc2ccc(Cl)c(Cl)c2)OCCCC[C@@H](C)O3)cc1` stands inactive: 1.06.
With `OC[C@@]1(O)CO[C@@H](OC[C@H]2O[C@@H](OCCc3ccc(O)cc3)[C@H](O)[C@@H](O)[C@@H]2O)[C@@H]1O` the figure was inactive: 0.985; with `COc1[nH]sc(=NN)c1C#N`, inactive: 0.98; with `C[C@H]1CCCCO[C@H](CN(C)C(=O)Nc2ccc(C(F)(F)F)cc2)[C@@H](C)CN([C@@H](C)CO)C(=O)c2cc(N(C)C)ccc2O1`, inactive: 0.976.
Turning to `COc1ccc(S(=O)(=O)Nc2ccc3c(c2)C(=O)N([C@H](C)CO)C[C@H](C)[C@@H](CN(C)C(=O)Nc2cccc4ccccc24)OCCCC[C@@H](C)O3)cc1`, the relative growth is inactive: 0.998.
`C[C@H]1CN([C@@H](C)CO)S(=O)(=O)c2ccc(C3=CCCCC3)cc2O[C@H]1CN(C)Cc1cncnc1`: the relative growth is inactive: 1.02.
Under `COc1ccc(NC(=O)Nc2ccc3c(c2)C(=O)N([C@@H](C)CO)C[C@@H](C)[C@H](CN(C)S(=O)(=O)c2ccccc2)OCCCC[C@@H](C)O3)cc1` stands inactive: 1.03; under `COc1ccc(S(=O)(=O)N(C)C[C@@H]2Oc3ccc(N(C)C)cc3C(=O)N([C@H](C)CO)C[C@H]2C)cc1`, inactive: 1.01; under `C[C@H](CO)N1C[C@H](C)[C@H](CN(C)Cc2ccccc2)Oc2c(NS(=O)(=O)c3cn(C)cn3)cccc2C1=O`, inactive: 0.989.
As for `CC1=C(C(=O)OCCN(Cc2ccccc2)c2ccccc2)[C@@H](c2cccc([N+](=O)[O-])c2)C(P2(=O)OCC(C)(C)CO2)=C(C)N1.CCO.Cl`, the relative growth is inactive: 1.05.
Take `C[C@H](CO)N1C[C@H](C)[C@H](CN(C)Cc2ccncc2)Oc2ccc(NC(=O)c3ccncc3)cc2C1=O`: the relative growth was inactive: 1.01.
On to `CS(=O)(=O)Nc1cccc(C2=NN(c3nc(-c4ccccc4)c4cc(Cl)ccc4n3)[C@H](c3ccco3)C2)c1`, for which the relative growth was inactive: 1.
Regarding `Cc1ccc(S(=O)(=O)Nc2ccc3c(c2)C(=O)N([C@@H](C)CO)C[C@H](C)[C@H](CN(C)Cc2ccc(Oc4ccccc4)cc2)O3)cc1`, the relative growth is inactive: 0.976.
With `C[C@@H]1CN([C@H](C)CO)C(=O)Cc2cc(NS(=O)(=O)c3cn(C)cn3)ccc2O[C@H]1CN(C)S(=O)(=O)c1ccc(Cl)cc1`, the relative growth is inactive: 1.03.
Under `C[C@@H]1CCCCO[C@H](CN(C)S(=O)(=O)c2ccccc2)[C@H](C)CN([C@@H](C)CO)C(=O)c2cc(NC(=O)Nc3ccc(C(F)(F)F)cc3)ccc2O1` stands inactive: 1; under `COc1ccc(C#Cc2ccc([C@H]3[C@@H](CO)N4CCCCN(S(=O)(=O)c5cn(C)cn5)C[C@@H]34)cc2)cc1`, inactive: 0.967; under `C=C[C@@H]1[C@@H](O[C@@H]2O[C@H](CO)[C@@H](O)[C@H](O)[C@@H]2O)OC=C(C(=O)O)[C@H]1CC(=O)O`, inactive: 0.984.
With `C[C@H](CO)N1C[C@H](C)[C@H](CN(C)S(=O)(=O)c2ccc(Cl)cc2)Oc2c(NS(C)(=O)=O)cccc2C1=O` the figure was inactive: 0.859; with `NC(=O)CSCC(=O)Nc1ccccc1F`, inactive: 1.02; with `Cc1noc(C)c1S(=O)(=O)Nc1ccc2c(c1)CC(=O)N([C@H](C)CO)C[C@H](C)[C@@H](CN(C)C(=O)NC1CCCCC1)O2`, inactive: 0.995.
With `C[C@H]1CN([C@@H](C)CO)C(=O)c2cc(NC(=O)CCCN(C)C)ccc2O[C@@H]1CN(C)Cc1ccncc1` the figure was inactive: 0.987; with `CN(C)CCCNC(=O)C[C@@H]1CC[C@H]2[C@@H](COC[C@H](O)CN2S(=O)(=O)c2ccc(F)cc2)O1`, inactive: 1.01; with `Cc1cc(NS(=O)(=O)c2ccc(N)cc2)no1`, inactive: 0.972.
For the compound `Cc1ccc(-c2nc(Nc3cccc(Cl)c3)sc2C)cc1`, the relative growth is inactive: 0.972.
Under `Cc1ccc(S(=O)(=O)Nc2ccc3c(c2)C(=O)N([C@H](C)CO)C[C@@H](C)[C@H](CN(C)Cc2ccc(Cl)c(Cl)c2)O3)cc1` stands inactive: 1.02; under `O=C(O)CNc1ccc(C(=O)O)cc1`, inactive: 0.998; under `COc1ccc(NC(=O)N(C)C[C@@H]2OCCCC[C@@H](C)Oc3ccc(NS(=O)(=O)c4ccccc4)cc3C(=O)N([C@@H](C)CO)C[C@H]2C)cc1`, inactive: 1.02.
For `CCCNC(=O)Nc1ccc2c(c1)OC[C@@H](C)N(C(=O)C1CCOCC1)C[C@H](C)[C@H](OC)CN(C)C2=O`, the relative growth was inactive: 0.994.
Turning to `O=C(O)c1cc2cccnc2[nH]c1=O`, the relative growth was inactive: 0.978.
Regarding `O=C(O)CC(CC(=O)O)C(=O)O`, the relative growth is inactive: 0.992.
With `C[C@H]1CN([C@@H](C)CO)C(=O)Cc2cc(NS(=O)(=O)c3cn(C)cn3)ccc2O[C@@H]1CN(C)S(=O)(=O)c1ccc(Cl)cc1` the figure was inactive: 0.954; with `COc1ccc(CN(C)C[C@@H]2OCCCC[C@@H](C)Oc3ccc(NC(=O)Nc4cccc5ccccc45)cc3C(=O)N([C@@H](C)CO)C[C@@H]2C)cc1`, inactive: 1.
Take `CN1C(=O)c2cc(NS(=O)(=O)c3cccc(F)c3)ccc2OC[C@H]2O[C@@H](CC(=O)NCCN3CCCCC3)CC[C@H]21`: the relative growth is inactive: 0.99.
With `C[C@@H]1CN([C@H](C)CO)C(=O)c2ccccc2-c2ccccc2CO[C@H]1CN(C)C(=O)Nc1cccc(Cl)c1Cl` the figure was inactive: 1.01.
With `COc1cc(CO)cc(I)c1O[C@H]1C=C(C(=O)NCCO)C[C@@H](NCc2ccc(F)cc2)[C@@H]1O` the figure was inactive: 1.
Under `CN(C)CC(=O)NS(=O)(=O)c1ccccc1` stands inactive: 0.998; under `COc1ccc(S(=O)(=O)Nc2ccc3c(c2)C(=O)N([C@H](C)CO)C[C@H](C)[C@H](CN(C)C(=O)NC2CCCCC2)OCCCC[C@H](C)O3)cc1`, inactive: 0.995.
Consider `C[C@H]1CN([C@@H](C)CO)C(=O)c2cc(NC(=O)NC3CCCCC3)ccc2O[C@H]1CN(C)C(=O)Nc1cccc2ccccc12`, for which the relative growth is inactive: 1.03.
With `C[C@@H]1CN([C@H](C)CO)C(=O)Cc2cc(NS(=O)(=O)c3ccc(Cl)cc3)ccc2O[C@H]1CN(C)C(=O)Nc1cccc2ccccc12` the figure was inactive: 1.02.
Under `C[C@@H]1CCCCO[C@@H](CN(C)C(=O)Nc2ccc3c(c2)OCO3)[C@H](C)CN([C@@H](C)CO)C(=O)c2cc(NS(=O)(=O)c3ccccc3)ccc2O1` stands inactive: 1.03.
`COc1cccc(S(=O)(=O)Nc2ccc3c(c2)[C@H]2C[C@@H](CC(=O)NCc4cccc(F)c4)O[C@H](CO)[C@H]2O3)c1`: the relative growth was inactive: 1.01.
As for `CC(C)NC(=O)Nc1cccc2c1O[C@@H](CN(C)S(=O)(=O)c1ccccc1)[C@H](C)CN([C@H](C)CO)C2=O`, the relative growth is inactive: 1.
Under `Cc1ccc(S(=O)(=O)Nc2ccc3c(c2)C(=O)N([C@@H](C)CO)C[C@@H](C)[C@@H](CN(C)C(=O)c2ccccc2)OCCCC[C@H](C)O3)cc1` stands inactive: 1.02.
